Assay results published in PubChem BioAssay (NCATS).
This list was built around the results that the source calls inconclusive (neither active nor inactive); the mix of calls is not that of the screen. No potency is given beside an inconclusive call; the fits are too rough. The source made the active and inactive calls. Calls follow the shape of the dose curve; as a rule, active = well fitted cell-killing curve with a large enough effect; inconclusive = small, poorly fitted or top-dose-only effect, or effect the other way, or another doubt; inactive = no such curve, though single readings can be large or run the other way.

Experiment: qHTS screen for small molecules that inhibit ELG1-dependent DNA repair: Hit Confirmation with 5FU Viability (AID 624250);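 also: viability measured 16 h after compound addition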
Conditions: cell viability with 5-FU; series mostly up to 46.1 µM
Method in brief: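 Viability by CellTiter-Glo after 16 h of compound exposure in the presence of 10 µM (final) 5-fluorouridine. Cells were ELG1-luc HEK293T, plated at 2000/well, dosed about 5 h post-seeding.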
Potency is read from the fitted curve at half-maximal effect; tags tell the direction and shape of the fitted curve.

| SMILES | Potency |
| --- | --- |
| CC(=O)c1c(C)n(C2CCCCC2)c2ccc(O)cc12 | inactive |
| CC1OC(O[C@@H]2C(O)CC(O[C@@H]3C(O)C[C@@H](OC4CC[C@]5(C)[C@H](CC[C@H]6[C@@H]5CC[C@]5(C)C(C7=CC(=O)OC7)C(O)C[C@@]65O)C4)OC3C)OC2C)CC(O)C1O (some centres not stated) | inconclusive [cytotoxic, full curve] |
| CC(=O)[O][Sn]([c]1ccccc1)([c]1ccccc1)[c]1ccccc1 | active: 2810 nM |
| COc1ccccc1OP(=O)(Nc1cccnc1)Oc1ccccc1OC | inactive |
| CC1O[C@@H](OC2CC[C@@]3(C=O)C4CC[C@]5(C)C(C6=CC(=O)OC6)CC[C@@]5(O)C4CC[C@]3(O)C2)C(O)C(O)C1O (some centres not stated) | inconclusive [cytotoxic, full curve] |
| CCCCN=C[C@]12CCC(O)CC1(O)CCC1[C@@H]2CC[C@]2(C)[C@H](C3C=CC(=O)O3)CCC12O (some centres not stated) | inconclusive [cytotoxic, full curve] |
| COc1ccc(C[C@H]2NC[C@H](O)[C@H]2OC(C)=O)cc1 | inactive |
| COc1ccc(C(Nc2ccccc2)P(=O)(Oc2ccccc2)Oc2ccccc2)cc1 (configuration not stated) | inconclusive [rising, full curve, poor fit] |
| COc1ccc(C(=O)CC2(CC(=O)c3ccc(OC)cc3)C(=O)N(C)C(=O)N(C)C2=O)cc1 | inconclusive [rising, full curve] |
| CC[C@@H]1/C=C/C=C/C[C@H](C)[C@@H](O)[C@](C)(O)C(=O)[C@H](C)[C@@H](O)[C@H](C)C(=O)[C@H](C)[C@@H](O)[C@H](C)/C=C/C(=O)O[C@H]2[C@@H](C)[C@@H](CC1)O[C@@]1(CC[C@@H](C)[C@@H](C[C@H](C)O)O1)[C@@H]2C | inconclusive [cytotoxic, single point] |
| COC1CC(OC2CC[C@@]3(C=O)C4CC[C@]5(C)C(C6=CC(=O)OC6)CC[C@@]5(O)C4CC[C@]3(O)C2)OC(C)C1O (some centres not stated) | active: 706 nM |
| CC1(C)Cc2c(c(N3CCOCC3)nc3sc4c(NCc5ccccc5)nnnc4c23)CS1 | inconclusive [rising, full curve] |
